Assay results taken from PubChem BioAssay (NCI).
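Results reflect a 48-hour exposure of cells in 96-well plates to compound at five concentrations. GI50: concentration for 50% inhibition of growth.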 Certain results were filed several times, with different values. This list holds those alone. An entry can have further records. For some of these results: The records of an entry are repeats (runs, samples, wells, individuals or studies). Marks in square brackets tell the records apart. Letters hold for one entry only.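 TGI denotes the concentration required for complete inhibition of growth.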 For some of these results: The tests behind the records often covered other concentration ranges, not given here; a value can be the end of its range.

Assays:
Test in all cases: NCI tumour cell line growth inhibition, 48 h
RPMI-8226 leukemia = test system: RPMI-8226 leukemia
A498 renal = test system: A498 renal
M19-MEL melanoma = test system: M19-MEL melanoma
MOLT-4 leukemia = test system: MOLT-4 leukemia
HCT-15 colon = test system: HCT-15 colon
DMS 114 small cell lung = test system: DMS 114 small cell lung
NCI-H23 lung = test system: NCI-H23 lung
SK-MEL-5 melanoma = test system: SK-MEL-5 melanoma
SK-MEL-2 melanoma = test system: SK-MEL-2 melanoma
SF-268 CNS = test system: SF-268 CNS
SNB-78 CNS = test system: SNB-78 CNS
NCI-H522 lung = test system: NCI-H522 lung
NCI/ADR-RES ovarian = test system: NCI/ADR-RES ovarian
OVCAR-4 ovarian = test system: OVCAR-4 ovarian
HCC-2998 colon = test system: HCC-2998 colon
LOX IMVI melanoma = test system: LOX IMVI melanoma
SF-295 CNS = test system: SF-295 CNS
COLO 205 colon = test system: COLO 205 colon
KM20L2 colon = test system: KM20L2 colon
HT29 colon = test system: HT29 colon
SK-OV-3 ovarian = test system: SK-OV-3 ovarian

With `C=C1C(=O)O[C@@H]2OC3(C)CCC4C(C)CCC1C42OO3` (some centres not stated) the TGI (RPMI-8226 leukemia) was 3.22 µM and > 100 µM.

`CN1CCC(C(=O)Nc2n[nH]c3nc(-c4ccc(O)cc4)c(Br)cc23)CC1` was tested, and the GI50 (A498 renal) was 615 nM [sample A, mean of 2 tests] and 37.1 nM [sample B, mean of 2 tests] and the TGI (A498 renal) was 3.77 µM [sample A, mean of 2 tests] and 323 nM [sample B, mean of 2 tests].

With `NC(=S)N/N=C/c1ccc(O)cn1` the TGI (M19-MEL melanoma) was 49.1 µM and > 1.5 mM, the TGI (MOLT-4 leukemia) was 62.3 µM, 915 µM [1 test] and 30.8 µM [mean of 4 tests] and the TGI (HCT-15 colon) was 57.6 µM and > 1.5 mM. For the same compound, the TGI (DMS 114 small cell lung) was 22.6 µM, 66.3 µM [1 test] and 327 µM [mean of 3 tests], the TGI (NCI-H23 lung) was 13.1 µM and > 705 µM and the TGI (SK-MEL-5 melanoma) was 36 µM, > 1.5 mM, 270 µM. The TGI (SK-MEL-2 melanoma) was 142 µM [1 test] and > 1.45 mM [mean of 7 tests], the TGI (SF-268 CNS) was 45 µM, 14.8 µM, 731 µM and the TGI (SNB-78 CNS) was 22.8 µM [1 test] and > 1.5 mM [mean of 5 tests]. The TGI (NCI-H522 lung) was 48.5 µM, 40.7 µM [1 test] and 1.24 mM [mean of 8 tests], the TGI (NCI/ADR-RES ovarian) was 9.64 µM and 127 µM and the TGI (OVCAR-4 ovarian) was 8.51 µM [1 test] and > 1.5 mM [mean of 7 tests]. The TGI (HCC-2998 colon) was 51.1 µM and 1.16 mM and the TGI (LOX IMVI melanoma) was 82.9 µM, > 1.5 mM, 292 µM.

`c1ccc(Nn2c(CCCCCCCCc3nnc(COc4ccccc4)n3Nc3ccccc3)nnc2COc2ccccc2)cc1` was tested, and the TGI (SF-295 CNS) was > 300 µM [1 test] and 19 µM [mean of 4 tests].

In the case of `CC(=O)OC(C)(C)/C=C/C(=O)[C@](C)(O)[C@H]1[C@H](O)C[C@@]2(C)[C@@H]3CC=C4[C@@H](C[C@H](O)C(=O)C4(C)C)[C@]3(CO)C(=O)C[C@]12C`, the TGI (COLO 205 colon) is reported as 778 nM and 21.7 µM, the TGI (KM20L2 colon) is reported as 835 nM and 18.8 µM and the TGI (HT29 colon) is reported as 980 nM and 49.7 µM. For the same compound, the TGI (SK-OV-3 ovarian) was 970 nM and 11.5 µM.
